From PubChem BioAssay AID1030 (National Center for Advancing Translational Sciences (NCATS), 2008)
The whole screen tested about 220,000 compounds, of which about 16,000 (7.3%) were called active. Inconclusive results, whose numbers are uncertain, are shown with a selection of clear calls. The call rests on the fitted dose curve; in most records, active means well fitted inhibition curve with a large enough effect (not every such curve was filed as active); inconclusive means small, poorly fitted or top-dose-only effect, or another doubt; inactive means no such curve, though single readings can be large or run the other way. No potency is given beside an inconclusive call; the fits are too rough.
Potency means the concentration at half of the fitted maximal effect; tags describe the fitted curve by direction and shape.
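Wherever activity, negative = inhibition is given: plate controls were no enzyme wells and a reference inhibitor.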

What follows are molecules tested against Aldehyde dehydrogenase 1A1 (Homo sapiens) (UniProt P00352) (assay: qHTS Assay for Inhibitors of Aldehyde Dehydrogenase 1 (ALDH1A1)). Details: Purified ALDH1A1, NADH fluorescence, propionaldehyde substrate; series mostly up to 75.3 µM; activity, negative = inhibition: at the top concentration.
UniProt P00352, sequence (P00352 whole entry, looked up): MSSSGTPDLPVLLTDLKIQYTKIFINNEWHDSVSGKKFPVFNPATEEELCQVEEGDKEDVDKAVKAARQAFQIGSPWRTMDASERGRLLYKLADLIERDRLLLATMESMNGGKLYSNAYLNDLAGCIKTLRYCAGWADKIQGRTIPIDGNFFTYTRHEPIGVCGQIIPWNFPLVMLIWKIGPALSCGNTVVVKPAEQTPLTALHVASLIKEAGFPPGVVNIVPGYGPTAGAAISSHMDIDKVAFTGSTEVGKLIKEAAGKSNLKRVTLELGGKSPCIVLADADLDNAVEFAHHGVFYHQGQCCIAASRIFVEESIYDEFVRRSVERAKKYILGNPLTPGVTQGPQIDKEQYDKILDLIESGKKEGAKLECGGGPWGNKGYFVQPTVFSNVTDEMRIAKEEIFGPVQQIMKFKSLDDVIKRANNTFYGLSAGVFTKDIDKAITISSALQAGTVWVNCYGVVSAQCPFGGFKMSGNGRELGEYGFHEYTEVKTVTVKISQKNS
In the case of COc1ccc(C(=O)c2ccc(Cl)cc2)cc1, the “activity, negative = inhibition” value is reported as inactive: -0.209%. In the case of Cc1cc(C)cc(NC(=O)NC(C)C2CCCO2)c1 (configuration not stated), the “activity, negative = inhibition” value is reported as inactive: 2.48%. For CCC(=O)c1ccc(OCC(O)CN2CCN(S(=O)(=O)N3CCCCC3)CC2)cc1 (configuration not stated), the Potency was inconclusive [inhibitor, single point]. CN(C)c1ccnc(-c2ccccc2C(F)(F)F)n1 was tested, and the “activity, negative = inhibition” value was inactive: 6.53%. For Cc1cc(C)n2c(SCC(=O)Nc3cc(C)on3)nnc2n1, the Potency was inconclusive [inhibitor, single point]. In the case of CCC(=O)Nc1cc(C(=O)O)ccc1Sc1ccc(Cl)cc1, the “activity, negative = inhibition” value is reported as inactive: -1.56%. For Cc1ccccc1-c1cncnc1NCc1cccs1, the Potency was inconclusive [inhibitor, partial curve]. For CCC(=O)c1c(NC(C)C)cc(C)oc1=O, the “activity, negative = inhibition” value was inactive: -7.42%. With Cc1ccc(/C=C/C(=O)NCc2ccco2)o1 the Potency was inconclusive [inhibitor, single point]. In the case of O=C1c2ccccc2-c2ccc(C(=O)N3CCCCC3)cc21, the Potency is reported as inconclusive [inhibitor, single point]. For CC1(C)C2CCC(C2)C1(C)N=C1OC(CCl)CS1 (configuration not stated), the Potency was inconclusive [inhibitor, partial curve]. In the case of O=[N+]([O-])c1ccc(N=NN(CCO)CCO)cc1, the Potency is reported as inconclusive [inhibitor, single point]. In the case of O=C(COC(=O)c1cnc(Cl)c(Cl)c1)NCCC1=CCCCC1, the Potency is reported as active: 12.6 µM. NC(=O)C1(N2CCCCC2)CCN(c2nc(-c3ccccc3)cs2)CC1 was tested, and the Potency was inconclusive [inhibitor, single point]. For NC1=C([N+](=O)[O-])C(c2ccccc2)C2=C(CCCC2=O)O1 (configuration not stated), the “activity, negative = inhibition” value was inactive: -2.58%. With COc1ccc2[nH]c(C)c(CCN(Cc3cccs3)C(=S)Nc3ccccc3)c2c1 the Potency was inconclusive [inhibitor, single point]. With c1ccc(OCCOCCN2CCN(C(c3ccccc3)c3ccccc3)CC2)cc1 the Potency was inconclusive [inhibitor, single point]. In the case of CC(C)NC(=O)C(=O)NCCCOC(C)C, the Potency is reported as inconclusive [inhibitor, single point]. For O=C(CSc1ccccc1)N1CCN(C(=O)c2ccco2)CC1, the Potency was inconclusive [inhibitor, single point]. For CC1Cc2ccccc2N1C(=O)Cn1cnc2ccccc21 (configuration not stated), the “activity, negative = inhibition” value was inactive: 6.12%. In the case of COc1ccc(NC(=O)Cn2cnc3c(oc4nc5c(cc43)COC(C)(C)C5)c2=O)cc1, the Potency is reported as inconclusive [inhibitor, partial curve]. With Cc1cc(N2CC(C)OC(C)C2)nc2ccccc12 (configuration not stated) the Potency was inconclusive [inhibitor, single point]. For CCCC1(C(=O)OC)C=C2C(=C(C(C)C)C(=O)C2C)CN1 (configuration not stated), the Potency was inconclusive [inhibitor, single point]. CC(C)CC(O)C1CCN(C(=O)CCc2nnc(-c3ccccc3)o2)CC1 (configuration not stated) was tested, and the “activity, negative = inhibition” value was inactive: 10.1%. For Cc1sc2nc(SCc3nc4ccccc4[nH]3)n(Cc3ccco3)c(=O)c2c1C, the Potency was inconclusive [inhibitor, single point]. For CCOC(=O)c1cc(-c2ccc(OC)cc2)nc2c1c(C)nn2CCC(N)=S, the Potency was inconclusive [inhibitor, single point]. In the case of CCOC(=O)Cc1cc(-c2ccc(O)cc2)nc2ccc3ccccc3c12, the Potency is reported as inconclusive [inhibitor, full curve, poor fit]. For CN(C)c1ccc(C2CC(c3cccc(NS(C)(=O)=O)c3)=NN2C(=O)c2ccccc2)cc1 (configuration not stated), the Potency was inconclusive [inhibitor, single point]. Cc1cc(C)cc(C(=O)NCC(=O)OCC(=O)Nc2cccnc2Cl)c1 was tested, and the Potency was inconclusive [inhibitor, single point]. For COc1ccc(OC)c2sc(NC(=O)C(C)C)nc12, the Potency was inconclusive [inhibitor, partial curve]. For CCCCC/C=C\C/C=C\C/C=C\CCCCCCC(=O)NCCCC(=O)O, the “activity, negative = inhibition” value was inactive: -1.87%. With Cc1nc2nc(-c3ccccc3)cc(=O)n2[nH]1 the “activity, negative = inhibition” value was inactive: 5.29%. For COc1cc(NC(=O)C2CC(=O)NC3=C2C(=O)CC(C)(C)C3)c(OC)cc1Cl (configuration not stated), the Potency was inconclusive [inhibitor, single point]. With C/C(=N/NC(=O)CNC(=O)c1ccccn1)c1cccc([N+](=O)[O-])c1 the Potency was inconclusive [inhibitor, single point]. In the case of O=C(Nc1cccc(S(=O)(=O)Nc2ccccc2F)c1)c1ccc2ccccc2n1, the Potency is reported as active: 3.16 µM. For O=C(NCCO)c1cccc2c1C(=O)c1ccccc1-2, the Potency was active: 20 µM. With CCOc1ccc(C(C)C)cc1S(=O)(=O)N1CCOCC1 the Potency was active: 8.91 µM. In the case of COc1cc(/C=N/NC(=O)C(=O)NCC2CCCO2)ccc1OCC(=O)N1CCOCC1 (configuration not stated), the “activity, negative = inhibition” value is reported as inactive: -8.05%. In the case of CCOCCCNC(=O)C1CCN(S(=O)(=O)N(CC(C)C)CC(C)C)CC1, the Potency is reported as inconclusive [inhibitor, partial curve, poor fit]. COc1cccc(Cn2c(=O)c(-c3ccc(Cl)cc3)nc3cnc(OC)nc32)c1 was tested, and the Potency was inconclusive [inhibitor, single point]. For CCn1c(C)nc2cc(C(=O)N/N=C/c3cccc(O)c3O)ccc21, the Potency was inconclusive [inhibitor, single point]. CC(C)N(C(=S)NC1CC2CCC1C2)c1ccccc1 (configuration not stated) was tested, and the “activity, negative = inhibition” value was inactive: -1.99%. In the case of COCCN(C(=O)CCC(=O)Nc1ccccn1)C(C(=O)NC1CCCC1)c1ccc(OC)cc1 (configuration not stated), the “activity, negative = inhibition” value is reported as inactive: 2.25%. For COc1ccccc1/C=C/C(=O)Oc1cccc2cccnc12, the Potency was inconclusive [inhibitor, single point]. For CNc1ncncc1-c1ccc(C(=O)N(C)C)cc1, the Potency was inconclusive [inhibitor, single point]. In the case of CCn1c(Cc2ccccc2)nnc1SCC(=O)Nc1ccc2c(c1)OCCO2, the Potency is reported as inconclusive [inhibitor, single point]. For CCOC(=O)NC(=O)COC(=O)c1ccc(Sc2ncn[nH]2)c([N+](=O)[O-])c1, the “activity, negative = inhibition” value was inactive: -10.9%.
